From PMC10331583, “Control of fibrosis with enhanced safety via asymmetric inhibition of prolyl‐tRNA synthetase 1” (EMBO Molecular Medicine, 2023)
Where “and” joins values, the source holds several entries; their conditions need not be identical. Identical values can stand only once. Further values from the same series stand in other lists.

What was measured:
[1] = test system: WI‐26 VA4 cells; assay: Collagen ELISA (secreted pro‐collagen I)
[2] = test system: WI‐26 VA4 cells stably expressing EV (empty vector); assay: Collagen ELISA in cells stably expressing EV; conditions: WI-26 VA4 EV; 300000 nM; replicates of Experiments #1-#4
[3] = test system: WI‐26 VA4 cells stably expressing PARS1 FA/EA/RL mutant; assay: Collagen ELISA in cells stably expressing PARS1 mutant; conditions: WI-26 VA4 Flag-PARS1 FA/EA/RL; 300000 nM; replicates of Experiments #1-#4
[4] = test system: WI‐26 VA4 cells; assay: CellTiter‐Glo assay (cytotoxicity)
[5] = 10 nM, Experiment #1, replicates, 0.01 µM
[6] = 10 nM, Experiment #2, replicates, 0.01 µM
[7] = 30 nM, Experiment #1, replicates, 0.03 µM
[8] = 30 nM, Experiment #2, replicates, 0.03 µM
[9] = 100 nM, Experiment #1, replicates, 0.1 µM
[10] = 100 nM, Experiment #2, replicates, 0.1 µM
[11] = 300 nM, Experiment #1, replicates, 0.3 µM
[12] = 300 nM, Experiment #2, replicates, 0.3 µM
[13] = 1000 nM, Experiment #1, replicates, 1 µM
[14] = 1000 nM, Experiment #2, replicates, 1 µM
[15] = 3000 nM, Experiment #1, replicates, 3 µM
[16] = 3000 nM, Experiment #2, replicates, 3 µM
[17] = 10000 nM, Experiment #1, replicates, 10 µM
[18] = 10000 nM, Experiment #2, replicates, 10 µM
[19] = 30000 nM, Experiment #1, replicates, 30 µM
[20] = 30000 nM, Experiment #2, replicates, 30 µM
[21] = 100000 nM, Experiment #1, replicates, 100 µM
[22] = 100000 nM, Experiment #2, replicates, 100 µM

Structure (SMILES)	Collagen, % of control (single replicates per experiment) ([1]; 3000 nM, 3 µM)	Collagen, % of control (single replicates per experiment) ([1]; 10000 nM, 10 µM)	CellTiter-Glo % of control [4, 5]	CellTiter-Glo % of control [4, 6]	CellTiter-Glo % of control [4, 7]	CellTiter-Glo % of control [4, 8]	CellTiter-Glo % of control [4, 9]	CellTiter-Glo % of control [4, 10]	CellTiter-Glo % of control [4, 11]	CellTiter-Glo % of control [4, 12]	CellTiter-Glo % of control [4, 13]	CellTiter-Glo % of control [4, 14]	CellTiter-Glo % of control [4, 15]	CellTiter-Glo % of control [4, 16]	CellTiter-Glo % of control [4, 17]	CellTiter-Glo % of control [4, 18]	CellTiter-Glo % of control [4, 19]	CellTiter-Glo % of control [4, 20]	CellTiter-Glo % of control [4, 21]	CellTiter-Glo % of control [4, 22]	other results
O[C@H]1CCCN[C@@H]1CCCn1cnc2c(Cl)c(Cl)ccc21 [DWN12088]	55.93 % of control and 57.72 % of control and 25.55 % of control and 24.34 % of control and 62.95 % of control and 61.18 % of control	4.33 % of control and 4.22 % of control and 22.62 % of control and 25.63 % of control and 11.12 % of control and 10.54 % of control and 14.80 % of control and 15.17 % of control	99.24 % of control	106.35 % of control	98.78 % of control	112.66 % of control	107.72 % of control	114.66 % of control	104.28 % of control	116.85 % of control	96.94 % of control	99.07 % of control	77.92 % of control	82.22 % of control	68.98 % of control	77.22 % of control	35.29 % of control	29.91 % of control	23.83 % of control	18.44 % of control	Efficacy, % of control, single replicate ([1]; 30 nM, 0.03 µM): 97.45 % of control and 107.68 % of control and 96.79 % of control and 97.21 % of control; Efficacy, % of control, single replicate ([1]; 100 nM, 0.1 µM): 99.89 % of control and 106.55 % of control and 91.48 % of control and 90.62 % of control; Efficacy, % of control, single replicate ([1]; 300 nM, 0.3 µM): 98.64 % of control and 105.63 % of control and 105.99 % of control and 111.62 % of control; Efficacy, % of control, single replicate ([1]; 1000 nM, 1 µM): 76.07 % of control and 64.54 % of control and 68.60 % of control and 95.40 % of control and 106.69 % of control; Efficacy, % of control, single replicate ([1]; 10000 nM, 10 µM): 15.01 % of control and 14.97 % of control and 9.45 % of control and 9.83 % of control; Collagen, % of control (single replicates per experiment) ([1]; 30000 nM, 30 µM): 3.30 % of control and 2.75 % of control and 9.40 % of control and 10.24 % of control and 1.82 % of control and 1.68 % of control and 4.46 % of control and 4.03 % of control; Efficacy, % of control, single replicate ([1]; 30000 nM, 30 µM): 4.00 % of control and 4.88 % of control and 3.19 % of control and 3.44 % of control; Collagen, % of control (single replicates per experiment) ([1]; 100000 nM, 100 µM): 2.29 % of control and 3.51 % of control and 8.06 % of control and 7.63 % of control and 0.71 % of control and 1.08 % of control and 2.44 % of control; Efficacy, % of control, single replicate ([1]; 100000 nM, 100 µM): 2.36 % of control and 2.99 % of control and 3.48 % of control and 1.67 % of control and 2.10 % of control; Collagen, % of control (single replicates per experiment) ([1]; 300000 nM, 300 µM): 4.38 % of control; Collagen level, single replicates [2]: 2.52 % of control and 1.96 % of control and 1.77 % of control and 2.30 % of control and 1.46 % of control and 2.56 % of control and 2.85 % of control and 3.67 % of control; Collagen level, single replicates [3]: 1.71 % of control and 1.29 % of control and 1.22 % of control and 1.04 % of control and 1.28 % of control and 2.00 % of control and 1.09 % of control and 1.35 % of control; CellTiter-Glo % of control ([4]; 300000 nM, Experiment #1, replicates, 300 µM): 1.94 % of control and 0.52 % of control; CellTiter-Glo % of control ([4]; 300000 nM, Experiment #2, replicates, 300 µM): 3.65 % of control and 1.39 % of control; CellTiter-Glo % of control ([4]; 1000000 nM, Experiment #1, replicates, 1000 µM): 0.52 % of control and -0.09 % of control; CellTiter-Glo % of control ([4]; 1000000 nM, Experiment #2, replicates, 1000 µM): 0.23 % of control and -0.23 % of control
Cc1c(Cl)ccc2c1ncn2CC(=O)C[C@H]1NCCC[C@@H]1O [DWN11748]	1.63 % of control and 4.15 % of control and 3.62 % of control and 2.86 % of control and 2.82 % of control and 1.71 % of control and 1.95 % of control and 0.62 % of control and 0.64 % of control and 3.58 % of control and 3.93 % of control and 3.45 % of control	1.68 % of control and 3.44 % of control and 3.88 % of control and 3.59 % of control and 2.23 % of control and 1.83 % of control and 2.08 % of control and 0.30 % of control and 0.13 % of control and 3.69 % of control and 1.88 % of control and 3.26 % of control	98.22 % of control	98.21 % of control	101.69 % of control	90.92 % of control	105.18 % of control	84.56 % of control	79.41 % of control	70.77 % of control	62.89 % of control	53.02 % of control	27.33 % of control	23.73 % of control	30.63 % of control	19.94 % of control	20.55 % of control	5.19 % of control	0.39 % of control	0.31 % of control	Collagen, % of control (single replicates per experiment) ([1]; 100 nM, 0.1 µM): 76.16 % of control and 81.70 % of control and 82.66 % of control; Collagen, % of control (single replicates per experiment) ([1]; 300 nM, 0.3 µM): 42.02 % of control and 40.95 % of control and 51.23 % of control and 48.10 % of control and 44.07 % of control and 44.64 % of control and 52.81 % of control and 50.89 % of control and 44.15 % of control and 38.48 % of control and 40.13 % of control; CellTiter-Glo % of control ([4]; 3 nM, Experiment #1, replicates, 0.003 µM): 111.30 % of control; CellTiter-Glo % of control ([4]; 3 nM, Experiment #2, replicates, 0.003 µM): 104.68 % of control
